Assay results as given in PubChem BioAssay (Tox21).
This list was built around the results that the source calls inconclusive (neither active nor inactive); the mix of calls is not that of the screen. Potencies of inconclusive entries are left out as doubtful fits. Active and inactive are the calls of the source. The call rests on the fitted dose curve; in most records, active means well fitted cell-killing curve with a large enough effect in the repeat runs; inconclusive means weak or mixed curves, or effect the other way; inactive means no such curve, though single readings can be large or run the other way.

Experiment: qHTS assay to identify small molecule antagonists of the sonic hedgehog signaling (Shh) pathway - cell viability counter screen (AID 1259367); further: nearly all actives have a fitted effect of over 55% in size
Conditions: NIH/3T3 Gli1-Luc viability, CellTiter-Fluor, 24 h; series mostly up to 92.4 µM
Summary of the method: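 After a 4 hr settling period, 3T3 Gli1-Luc cells were treated with DMSO-dissolved chemicals and conditioned medium, kept 24 hr at 37C in 5% CO2, and assayed for viability by CellTiter-Fluor fluorescence following 1 hr reagent incubation.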
Potency means the concentration at half of the fitted maximal effect; tags describe the fitted curve by direction and shape.

Row | Compound | Potency
1 | COc1cc(C(C)C)c2c(c1)S(=O)(=O)N(COc1cc(=O)n3cccc(OCCN4CCCCC4)c3n1)C2=O | inconclusive [cytotoxic, single point]
2 | Cc1cccc(Oc2ccccc2)c1 | inactive
3 | CCCCC | inconclusive [cytotoxic, partial curve, poor fit]
4 | CCO[Si](C)(OCC)OCC | inactive
5 | C[C@H](CCC(=O)O)[C@H]1CC[C@H]2[C@@H]3[C@H](O)C[C@@H]4C[C@H](O)CC[C@]4(C)[C@H]3CC[C@]12C | inconclusive [cytotoxic, partial curve]
6 | CCCCOCC(C)OCC(C)O (stereo not drawn) | inactive
7 | O=C(O)C1(C(=O)Nc2ccc(Cl)cc2Cl)CC1 | inactive
8 | N#Cc1ccc(C(=O)O)cc1 | inactive
9 | Cn1c(=O)c2[nH]c(Br)nc2n(C)c1=O | inactive
10 | CN1CCC(=C2c3ccccc3C=Cc3ccccc32)CC1 | inactive
11 | ClC(Cl)(Cl)c1ccc(C(Cl)(Cl)Cl)cc1 | inactive
12 | CCCCCCCCCCCCCCCS(=O)(=O)Oc1ccccc1 | inactive
13 | CCCCCCCC#N | inconclusive [cytotoxic, single point]
